Experimental data reported in the supplement of paper PMC11417369.
± gives the standard deviation of the averaged measurements. The list shows a part of the results.

Test system: PfAP2-EXP AP2 domain (GST-tagged)
Test: gcPBM binding intensity (ln(normalized median fluorescence intensity)); higher = stronger DNA binding
Summary of the method: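 After 1 h on an Agilent 4 × 180k array of primer-extended double-stranded 36-bp intergenic genomic probes and negative controls, bound GST-tagged P. falciparum DNA-binding domains were detected with Alexa488 anti-GST antibody and scanned at 488 nm. The domains had been expressed in E. coli, and binding took place in 1× PBS with 1% milk, 0.2 mg/ml BSA, 0.5% salmon testes DNA and 0.03% Triton X-100. Binding intensity is the highest Masliner-normalised natural-log median intensity across replicate spots of either probe orientation.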

Sequence	gcPBM binding intensity (ln)
AAAGTAGAATATCCCCTACACACCCAAATAATTTAC [CACACA_site1255]	9.37 ± 0.79
TCCACAAAGCATGTAACACACAACATATAAGACATA [CACACA_site972]	8.78 ± 0.46
ACATCATAGAAAAATTGATATATATATATATATATA [CACACA_negctrl_site130]	10 ± 0.53
AACCACATACCTATAACACACATATACAATATAGAT [CACACA_site7023]	8.59 ± 0.49
TATTAAAAAGAGGTGACACACACATATAAATCTAAA [CACACA_site9243]	8.57 ± 0.47
TTAAAAAAATTAATATGTACATATATTTATATATAT [XGTACX_site5317]	8.41 ± 0.2
TATATATTTTATTTATGTACGAAAATAAATTAAATT [XGTACX_site3628]	8.27 ± 0.38
TCCATTGTCACCTTTTGTACTTAAATTTTTTCCTCC [XGTACX_site1573]	9.05 ± 0.52
CTTTTTTTTTTTTTTTGTCCGTATGAGGGACCTATA [XGTACX_site8839]	8.45 ± 0.28
ATAAAAAAATCAGACACACACACGTAAACACATACA [CACACA_site5529]	8.76 ± 0.57
CAAAAATTACCCTTGTGTACACATATATTATATGTA [XGTACX_site1124]	8.69 ± 0.18
TGAGATAAATGTGGTAGTACATTTTTTTTATATATA [XGTACX_site1918]	8.2 ± 0.26
ATATCATCTTCTCTATCATTTTTTTTTTTTTTTTTT [CACACA_negctrl_site1220]	8.72 ± 0.4
TTAATTATGTTTTGGTGTACAATAAATTGAATAGAT [XGTACX_site3306]	8.55 ± 0.31
CTACTTAATATTTGTACACACATATTTAACCTACTA [CACACA_site5725]	8.76 ± 0.33
ATATATATTTATATATGTACATATTTTTGTGTATTT [XGTACX_site1183]	8.55 ± 0.43
ATGTTATAATTTAGTGTGCACATATTAAGAGGAACA	9.24 ± 0.23
AATAATAATAGAAACACACACACATTTTTAATAATA [CACACA_site1217]	8.55 ± 0.49
ATATATATATATATATGTACATAATAATTTTATAAA [XGTACX_site5105]	10.2 ± 0.33
AAAATAATTTTATAGTTGCACTATATCGTATACAAT	8.72 ± 0.26
ATATATTTTATACATACACACATATATATATTTTTT [CACACA_site3940]	8.66 ± 0.33
TGATTAAATCAAGAAAGTACAAAATGAAATATATAA [XGTACX_site4319]	8.84 ± 0.45

Sequence	gcPBM binding intensity (ln)
TAAAGTGTAAAATTCACACACATATAAATAAATATA [CACACA_site6765]	8.44 ± 0.54
TTTAAAAAAAAAAATACACACATAAAAGTTTTCAAA [CACACA_site6471]	8.29 ± 0.45
TACAAAAGCTATAACATTCACCACATTATAAAAATA [CACACA_negctrl_site1112]	8.29 ± 0.4
TTACAAATATTATAATGTACCCATTTTTTTTGCCTT [XGTACX_site6612]	8.47 ± 0.39
TTTTCATTAAGATACTTATAATAGTTTATTAGTAAA [CACACA_negctrl_site586]	7.92 ± 0.33
AAAATATATAAATATACATGCATAATTAATAGTATA [TGCATGCA_site804]	8.66 ± 0.39
AATTCAAAGAAAAACTGTACGTGTAGCAAACATCCT [XGTACX_site599]	8.66 ± 0.47
TAATATGAAGATGGCAGTACTCTAGTCAATTTTTAC [XGTACX_site5375]	8.53 ± 0.38
TTTTTAAAAATATACACACACAGATATTATATATAT [CACACA_site786]	8.73 ± 0.13
ATATATGTTCCTTTTACACACATAATCTTTTTTTTA [CACACA_site2661]	8.91 ± 0.42
AAAATATAATATAATGCACACATAAAAAAAAAAAAA [CACACA_site7989]	8.52 ± 0.49
ATATTGTGTTATAAATGTACACAATTTCCTTTCATA [XGTACX_site7481]	8.48 ± 0.22
GGGGACGCGGGTGGGGGTACTCACACTATGCAAAAT [XGTACX_site7745]	10.3 ± 0.4
ATATATATATGTATGTATATATATATATATGTTTGA [GTGCAC_negctrl_site561]	9.465 ± 0.078
GTATCAATAAAAAACAGTACATATATAATATATTTA [XGTACX_site1083]	8.36 ± 0.21
TTCATATAGAATTGTACACACAAAAACGACATTGTG [CACACA_site7061]	8.79 ± 0.38
AAAAAAAAGGAAATAACACACATGTATATATCTATA [CACACA_site6856]	8.32 ± 0.42
GGGGGCTTTTATAAAAGTACAAAATGAATAAAAATT [XGTACX_site2393]	9.62 ± 0.38
TATACTCATAAATACACACACATATATATATATATA [CACACA_site5822]	10.2 ± 0.28
TATACATACCCACCCACACACAAAAAAAAAAAAAAA [CACACA_site4632]	9.36 ± 0.95
AAAATATAATATAATGCACACATAAAAAAAAAATCA [CACACA_site7922]	8.62 ± 0.31
TATCTGTAAATGGACACACACATATATATATATATA [CACACA_site5926]	10.2 ± 0.2
